Laboratory results: the supplement of paper PMC7826260
This is one part of the list. Cleavage of a single-stranded DNA pool by Rep nickase domains was read by sequencing (3 µM enzyme, 1 h, 37 °C); shown is the middle of each 90-letter strand. A value is the log2 ratio of uncut reads to the pool without enzyme; strong cutting gives strongly negative numbers. There is no active / inactive call. Because reads are shares of a total, they shift together; uncut strands gain when others are lost, and binding without cutting may add a little.

Tests used:
Assay in all cases: uncleaved DNA left, log2 of reads against the no-enzyme library (log2 ratio); higher = less cleavage (more negative = more Rep cleavage of the k-mer); sequences stand for … in CTCGTCCG…ACCGGAGA
[1] = system: T1, Rep nickase domain of Muscovy duck circovirus
T1 sequence (protein, residues 1-111, tag omitted): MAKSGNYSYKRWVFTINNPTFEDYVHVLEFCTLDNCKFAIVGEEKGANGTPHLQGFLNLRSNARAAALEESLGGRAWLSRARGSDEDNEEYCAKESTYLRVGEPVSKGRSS
Procedure: (§1)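 A pool of 90-nt single-stranded DNAs with seven random bases just before the constant AC of the nick site (name = the seven bases) was cut by 3 µM recombinant His6-SUMO-tagged Rep nickase domain (300 nM DNA, 50 mM HEPES pH 8.0, 50 mM NaCl, 1 mM MnCl2, 1 h, 37 °C, three replicates). Uncut DNA was amplified and sequenced.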

[2] = system: T2, Rep nickase domain of banana bunchy top virus
T2 sequence (protein, residues 1-94, tag omitted): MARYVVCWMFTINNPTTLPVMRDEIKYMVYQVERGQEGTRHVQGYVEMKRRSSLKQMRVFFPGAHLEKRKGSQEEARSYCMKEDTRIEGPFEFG
Procedure: as §1

[3] = system: T3, Rep nickase domain of cabbage leaf curl virus
T3 sequence (protein, residues 1-116, tag omitted): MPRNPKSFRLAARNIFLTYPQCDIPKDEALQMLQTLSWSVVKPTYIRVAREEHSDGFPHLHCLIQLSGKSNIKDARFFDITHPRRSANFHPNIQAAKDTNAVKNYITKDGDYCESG
Procedure: as §1

[4] = system: T4, Rep nickase domain of chickpea chlorotic dwarf virus
T4 sequence (protein, residues 1-124, tag omitted): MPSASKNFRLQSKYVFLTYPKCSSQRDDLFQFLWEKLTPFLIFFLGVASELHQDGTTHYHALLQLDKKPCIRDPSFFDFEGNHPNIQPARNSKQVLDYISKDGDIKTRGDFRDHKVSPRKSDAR
Procedure: as §1

[5] = system: T5, Rep nickase domain of faba bean necrotic yellows virus
T5 sequence (protein, residues 1-98, tag omitted): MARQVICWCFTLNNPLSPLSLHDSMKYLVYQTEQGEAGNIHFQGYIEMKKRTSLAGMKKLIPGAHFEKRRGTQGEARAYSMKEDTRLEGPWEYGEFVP
Procedure: as §1

[6] = system: T6, Rep nickase domain of maize striate mosaic virus
T6 sequence (protein, residues 1-117, tag omitted): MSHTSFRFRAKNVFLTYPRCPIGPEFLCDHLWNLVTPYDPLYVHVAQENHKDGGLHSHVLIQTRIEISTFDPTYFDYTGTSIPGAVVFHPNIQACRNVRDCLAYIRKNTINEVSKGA
Procedure: as §1

[7] = system: T7, Rep nickase domain of porcine circovirus 2
T7 sequence (protein, residues 2-116, tag omitted): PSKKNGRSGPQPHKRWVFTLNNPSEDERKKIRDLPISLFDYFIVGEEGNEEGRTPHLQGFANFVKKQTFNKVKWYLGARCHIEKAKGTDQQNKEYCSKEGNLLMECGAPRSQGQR
Procedure: as §1

[8] = system: T8, Rep nickase domain of tomato yellow leaf curl virus
T8 sequence (protein, residues 1-136, tag omitted): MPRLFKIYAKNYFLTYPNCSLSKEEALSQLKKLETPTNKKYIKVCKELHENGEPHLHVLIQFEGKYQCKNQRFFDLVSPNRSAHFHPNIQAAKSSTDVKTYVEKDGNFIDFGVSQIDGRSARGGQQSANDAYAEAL
Procedure: as §1

[9] = system: T9, Rep nickase domain of wheat dwarf virus
T9 sequence (protein, residues 1-137, tag omitted): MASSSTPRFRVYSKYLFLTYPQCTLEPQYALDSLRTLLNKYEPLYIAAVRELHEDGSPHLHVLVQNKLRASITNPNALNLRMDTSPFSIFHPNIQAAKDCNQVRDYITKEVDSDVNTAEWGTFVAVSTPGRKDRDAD
Procedure: as §1

Sequence	uncleaved DNA left (log2) [1]	uncleaved DNA left (log2) [2]	uncleaved DNA left (log2) [3]	uncleaved DNA left (log2) [4]	uncleaved DNA left (log2) [5]	uncleaved DNA left (log2) [6]	uncleaved DNA left (log2) [7]	uncleaved DNA left (log2) [8]	uncleaved DNA left (log2) [9]
AACGCTA	-0.0333	0.021	0.0518	-0.803	-0.0348	0.732	0.00879	-0.0518	-0.13
CAGAACA	0.0076	0.0624	-0.0774	-2.03	0.0825	-0.451	-1.2	0.0199	0.0812
CTATCGC	-0.0821	-0.125	-0.64	-0.91	-0.00174	-1.09	-0.0268	-0.097	-0.187
CATACAA	0.00485	0.0411	-0.119	-1.05	0.0127	-0.789	0.00034	0.0344	-0.0401
CAACAAG	-0.0315	0.0132	-0.808	-0.496	0.0225	-1.23	0.168	0.0503	-0.0859
TATTGGT	-3.27	-3.23	-0.886	-1.71	-0.107	-0.89	-3.68	-0.0547	-0.196
TGAAACG	-0.0343	-0.021	-0.425	-0.684	-0.0864	-1.11	0.097	-0.107	-0.0569
TTGGGCG	-0.00306	-0.0794	-0.694	0.49	0.0454	-0.737	0.115	-0.00645	-0.168
GTCTTAC	-0.0735	0.131	0.276	0.544	-0.0767	1.64	-0.388	0.0326	0.0713
AGCCCGG	0.0529	0.0614	0.0992	0.828	0.045	1.14	0.072	-0.179	0.0576
CTCAGAT	0.0773	-0.083	0.169	1.01	0.104	1.5	0.109	-0.155	0.143
TTGATTG	0.059	-0.102	-0.351	-0.0349	-0.0706	-0.581	0.0529	-0.125	-0.0915
GGCAGCT	-0.0356	-0.0592	0.359	0.876	-0.0933	1.13	0.111	-0.16	-0.0146
GCGCTAT	0.0312	-0.118	0.0317	0.156	0.00544	0.271	-0.132	-0.226	0.00199
GGCCTGT	0.0356	0.0984	0.33	0.868	0.0299	1.77	0.184	0.0464	0.169
TCGAACC	-0.0767	-0.0548	0.0444	-0.537	-0.0476	-0.542	-0.264	-0.01	0.00473
TTAAGGT	0.0274	0.0388	-0.652	-1.93	0.114	1.66	0.0689	-0.0553	-0.0276
CTCTGAA	0.0191	0.194	0.138	-0.332	-0.0933	-0.468	-0.0597	0.00685	0.154
TGTGTCC	-0.0028	-0.0632	0.257	0.431	-0.237	0.993	-0.0123	-0.0182	-0.0547
ATCCTTA	0.071	0.124	0.0751	-1.25	0.00157	-0.341	-0.133	0.0459	-0.0539

Sequence	uncleaved DNA left (log2) [1]	uncleaved DNA left (log2) [2]	uncleaved DNA left (log2) [3]	uncleaved DNA left (log2) [4]	uncleaved DNA left (log2) [5]	uncleaved DNA left (log2) [6]	uncleaved DNA left (log2) [7]	uncleaved DNA left (log2) [8]	uncleaved DNA left (log2) [9]
TCAAAAT	0.276	0.113	0.092	-0.809	0.062	-0.423	-0.0352	0.134	0.138
GTTGCTA	0.019	0.0187	0.187	0.726	0.0592	1.22	0.109	0.0817	0.115
ATGGAAC	0.151	0.0662	0.175	0.717	0.18	0.469	0.103	-0.0139	0.121
CCTTCGA	0.0302	-0.018	-0.53	-0.693	-0.092	-1.21	0.0218	-0.094	-0.175
TCGTGGT	-0.162	-0.142	0.0029	-0.253	-0.168	0.233	-2.99	-0.159	-0.125
AAGAGTA	0.063	0.00306	0.0564	-0.134	0.127	0.685	-1.1	-0.0916	0.0505
CGCTATG	-0.00731	-0.061	-0.336	0.0456	-0.0459	-0.117	-0.0104	-0.126	-0.0971
GGTTTTA	-0.0143	0.107	0.415	0.874	0.119	1.82	0.0576	0.106	0.22
CGTCGGG	-0.0919	-0.226	-0.306	-0.0796	-0.0966	-0.494	-0.0716	-0.222	-0.0629
TTACCTC	0.0374	-0.00483	0.102	-1.62	-0.108	0.182	-0.886	0.0899	0.0969
CAGTCTG	0.0271	0.167	0.158	1.04	0.0715	1.4	0.0255	0.0734	0.14
CACTTCG	0.0132	0.00519	-0.887	0.226	0.00529	-0.744	0.0641	0.036	-0.11
AACCCAA	0.112	0.161	0.313	0.192	-0.00494	-0.0993	-0.237	0.00806	0.109
CTTCGGC	0.168	0.0757	0.0239	-0.0184	0.0521	-0.546	0.23	-0.026	0.0603
TGTTATC	-0.0017	0.0257	0.273	0.555	-0.173	0.926	-0.0693	0.0543	-0.052
GGGAACA	0.0915	0.145	0.907	2.15	-0.00697	2.31	0.219	0.0219	0.153
CCCGGTA	0.00631	0.0189	0.226	0.0872	0.112	0.368	-0.0249	0.0886	0.0146
CTGTTTG	0.0178	-0.122	-0.724	-0.728	-0.112	-1.02	0.0874	-0.132	-0.218
TGCTCGA	-0.0834	0.00376	-0.339	-0.657	-0.212	-0.941	-0.0712	-0.206	-0.205
AAGACAT	-0.0172	0.11	0.796	1.95	0.02	2.1	-0.575	0.0682	0.275

Sequence	uncleaved DNA left (log2) [1]	uncleaved DNA left (log2) [2]	uncleaved DNA left (log2) [3]	uncleaved DNA left (log2) [4]	uncleaved DNA left (log2) [5]	uncleaved DNA left (log2) [6]	uncleaved DNA left (log2) [7]	uncleaved DNA left (log2) [8]	uncleaved DNA left (log2) [9]
TAACGTT	-0.137	-0.193	-3.57	-3.95	0.00253	-2.06	-1.73	-0.285	-3.21
TCGAATG	-0.123	-0.0947	-0.103	0.562	-0.162	1.54	-0.0257	-0.129	-0.193
GAACCGC	-0.0802	-0.051	-0.0751	-0.389	-0.0602	-0.39	-0.158	-0.0283	0.0282
CCAGCTG	-0.137	-0.0258	0.228	1.28	-0.0361	1.65	0.0693	-0.24	-0.0815
AACAAGC	0.109	0.0944	-0.14	0.114	-0.0466	-0.746	0.148	-0.025	-0.0495
GTACTGT	-0.0609	0.0291	0.223	0.687	0.0856	1.64	-0.00267	0.108	0.1
TGTCCAG	-0.115	-0.0523	-0.573	-0.656	-0.182	-1.17	-0.0322	-0.0723	-0.186
GGCAAGA	-0.000714	0.0476	0.575	1.36	0.123	1.61	0.103	0.0572	0.126
GGTGGGT	0.0644	0.0695	0.576	1.31	0.0729	1.79	0.148	0.102	0.0456
TAACGAC	-0.073	-0.146	-0.338	-0.945	-0.02	-0.51	0.089	-0.0866	0.0249
AAAACTG	-0.0883	-0.0521	-0.105	0.738	-0.0931	1.25	-0.00709	-0.101	0.0258
TCTAAAC	0.034	-0.018	0.187	-0.209	0.0365	-0.453	0.124	0.00963	0.0813
CACAGGT	-0.0339	-0.00172	0.297	0.865	-0.0348	0.946	0.00917	0.0344	0.00597
AAGTATC	0.17	0.0419	0.0498	-0.143	-0.586	0.00139	-3.06	-0.0811	0.134
GCTTCGC	-0.00988	0.0284	-0.257	-0.126	-0.0706	-0.681	0.172	-0.00533	-0.151
TAGCGGG	-0.0394	0.0332	-0.0355	0.26	-0.0671	0.185	0.108	-0.0523	-0.0393
AGATTAA	0.0269	0.0249	0.142	0.139	0.154	-0.274	-0.0633	0.15	-0.0336
TGCAGAT	0.0589	-0.0154	0.21	0.887	0.13	0.985	0.123	-0.0269	-0.0199
ACTCAAC	-0.0297	0.0149	-0.215	-1.63	0.0105	-0.764	0.0353	-0.139	-0.0543
CTGTTAC	-2.61	-0.116	-0.642	-2.18	-0.0237	-0.531	-2.94	-0.0961	-0.293
